Measurements from the supplement of paper PMC3724861.
This is one part of the list.

Tested on: T1, Caupolican (Caup) homeodomain DNA-binding domain
T1 sequence: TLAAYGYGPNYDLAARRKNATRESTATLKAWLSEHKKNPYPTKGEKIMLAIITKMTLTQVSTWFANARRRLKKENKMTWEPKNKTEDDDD
Assay: PBM E-score (8-mer, recovered from the published 9-mer minima) (E-score (dimensionless, -0.5 to 0.5)); Drosophila protein; higher = stronger relative binding preference, active = 0.31 or more
Outline: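 Caup's homeodomain DNA-binding domain (residues 214-303) was produced by in vitro transcription and translation and applied at 100 nM to custom-designed protein binding microarrays. Each value is an enrichment score giving relative binding preference for a short DNA word; higher means stronger. Published 9-mer scores were the minimum of their two constituent 8-mer scores, and the 8-mer values were recovered from those minima. A cutoff of 0.31 marks candidate binding sequences.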

Sequence | PBM E-score
CGCGATCA | ≥ 0.0727
CCTATTAC | inactive: 0.17
GCAGTAGA | inactive: -0.0281
CTGTGTCA | inactive: 0.142
AGATGCCC | inactive: -0.129
AAGCAAAG | inactive: -0.0891
CGTCTTTC | inactive: -0.0945
CGACGAAC | inactive: -0.0229
ACTTTCTG | inactive: 0.034
CGCTTATA | inactive: -0.0421
TCACGAAA | ≥ 0.148
ATCTAGGC | inactive: -0.0579
ACGCTTCG | inactive: -0.057
CGCCGGCC | inactive: -0.24
AGACTCCT | inactive: -0.148
CACTCCAC | inactive: -0.0577
TGCCTCAA | inactive: -0.208
AGACTCCC | inactive: -0.218
CCCTTCGG | inactive: -0.276
AAGGCTCG | inactive: -0.0926
ACTACCGC | inactive: -0.0702
CAACCTGC | inactive: -0.0591
ACCGCGGC | inactive: -0.193
ATCATGAA | inactive: 0.0136

Sequence | PBM E-score
GAATGTGC | inactive: -0.00831
ACTGGACC | inactive: -0.159
GGCCCAAA | inactive: -0.204
AAGACATG | active: 0.381
CAGCGCAA | inactive: -0.0907
CTTGGGGC | inactive: -0.289
CGGGCCAG | inactive: -0.233
AGATAAAC | inactive: 0.0686
CAGTCCAG | inactive: -0.109
CGTAAGCA | inactive: -0.101
CAGCAGCG | inactive: -0.121
CCTGCGAC | inactive: -0.204
CCACACCG | inactive: -0.106
AGCCTCTC | ≥ -0.0654
AGCCAGGG | inactive: -0.276
ACTGGATG | inactive: 0.0787
AATGCAGT | inactive: 0.00542
CCATGTGC | inactive: -0.0035
GACCCCAA | inactive: -0.155
ACAGTTAT | inactive: 0.0946
AGCTAGCA | inactive: -0.064
AGGTCGGG | inactive: -0.168
GACGCTCA | inactive: -0.118
GCAGAAGC | inactive: -0.155

Sequence | PBM E-score
AGTTTAAA | inactive: 0.169
ATGAGGGA | inactive: -0.0343
AGATGTTG | inactive: 0.203
GAGAGTAA | inactive: 0.0295
ATAGGTTG | inactive: 0.029
ACCACGCT | inactive: -0.0652
GCCCGAGC | inactive: -0.233
ATCGTTAC | inactive: 0.132
TCACATAA | inactive: 0.182
ACAATGTA | inactive: 0.285
ACGAGGTG | inactive: 0.0761
ATAAAATC | inactive: 0.139
CAAGTATC | inactive: 0.148
CATCAGGC | inactive: -0.0398
GCTTCGTA | inactive: -0.0161
ACATCGCA | inactive: 0.233
CAAGATGC | inactive: 0.0683
ATATGCTG | inactive: 0.0997
GCAATACA | inactive: 0.157
CCCCCATA | inactive: -0.224
GCCCGTTA | inactive: -0.144
ACGGGCGC | inactive: -0.222
CTCTACGC | inactive: -0.116
CAGCCTAC | inactive: -0.0621

Sequence | PBM E-score
CCTCGCCG | inactive: -0.253
CGCGGGCA | ≥ -0.0686
AAGCGCTA | inactive: -0.0416
AATTAACT | inactive: 0.117
AAGCGTAT | inactive: 0.0255
ACGCGTAC | inactive: 0.1
GATACGCC | inactive: -0.133
CAAACTGC | inactive: -0.0256
CAGTGTGG | inactive: -0.109
GCCCCTAA | inactive: -0.142
AGCACGTA | inactive: 0.0899
CGTGCGAG | inactive: -0.159
AAAACAAG | ≥ 0.302
AAAGTCAG | inactive: -0.0861
CGCATTAG | inactive: -0.0694
CTTACGAC | inactive: 0.0222
CGGCGTTA | inactive: -0.0644
ATCATAAT | inactive: 0.167
AACGCCTT | inactive: -0.106
CAGCTCAA | inactive: -0.125
ATTTGGCC | inactive: -0.0772
AAGTATTC | inactive: 0.0774
AGAGTGCT | ≥ 0.0592
CTCGGTTC | inactive: -0.111

Sequence | PBM E-score
CATTCCGC | inactive: -0.128
ATAGACAG | inactive: 0.16
TACGTAGA | inactive: 0.0913
ACAGCTCA | inactive: 0.0446
GGATATAC | inactive: 0.0874
AATCCGCT | inactive: -0.0276
GCACAGGA | inactive: -0.0505
GTCAAAGA | inactive: 0.0779
CTTTCTGA | inactive: 0.0482
AACTTGAA | inactive: 0.00855
CCTACCAA | inactive: -0.0124
AGGGTGCA | ≥ -0.0289
CGGCGTGA | inactive: -0.168
CGTCGGCA | inactive: -0.106
CGTCGCAA | inactive: -0.108
CCCTGCGA | inactive: -0.218
TATGGTCA | inactive: 0.0219
CCGGCAGG | inactive: -0.184
CTCATATC | inactive: -0.016
CCTTTGAG | inactive: -0.0619
AGCTGTAA | inactive: 0.166
CCGGTGCA | inactive: -0.201
AACCGGGC | inactive: -0.264
GATGTACC | active: 0.366

Sequence | PBM E-score
GAAGCCCA | inactive: -0.162
GACTACGA | inactive: -0.0174
ATTCACGC | inactive: -0.00409
ATGATGCC | inactive: -0.0669
AGTTATGG | inactive: 0.0722
ATCTCAGA | inactive: 0.00223
CACCGATA | inactive: 0.0528
CCCTTCAG | inactive: -0.0511
CACCTAAG | inactive: 0.0447
TAAGTAGA | inactive: 0.11
TATAAGGA | inactive: 0.086
CACCAGGC | inactive: -0.132
ATAAAAAC | inactive: 0.235
GATAGACC | inactive: -0.0341
CAGTCTCC | inactive: -0.0795
CATAAAGG | inactive: 0.0282
CAGTTTGC | inactive: -0.0156
CCTCCTAA | inactive: 0.0234
ATTGAGCC | inactive: -0.129
GATGCTCC | inactive: -0.0852
TCGGCGCA | inactive: -0.118
GCAGCTGC | inactive: -0.262
CTAGTGTA | inactive: 0.184
